The source of these data is article PMC5892938.

The list shows a part of the results. At the low end of the ranking the order means little.

This assay addresses GST-SBP-SLBP (stem-loop binding protein) (UniProt Q14493). The assay can be described thus: targeted RNA Bind-n-Seq.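 Further: DESeq read counts versus GST-SBP nonspecific binding control pulldown.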 The settings on record: RBNS binding buffer: 25 mM Tris pH 7.5, 150 mM KCl, 3 mM MgCl2, 0.1% Tween, 0.5 mg/mL BSA, 1 mM DTT; 27 nM protein, 750 pM RNA pool; temperature not stated; high values mean tight binding.
Turning to “GGUCACGUCUCAAUCAACUCCUCAGAGGGGGGGAAAACCCCUUUACCCUCCAAAUCAACAGCUCGCAGUCAAG”, the binding signal (log2 fold change) worked out at 0.29.

In the case of “GGUCACGUCUCAAUCAACUCCUAGGAGGGGGGGAAAACCCCUUUACCCUCAAUUUCAACAGCUCGCAGUCAAG”, the binding signal (log2 fold change) was -0.728.

In the case of “GGUCACGUCUCAAUCAACUCAUCUUCAGGAGUUUCCUCCUGCAUAGUCAACAGCUCGCAGUCAAG”, the binding signal (log2 fold change) came to 0.163.

For “GGUCACGUCUCAAUCAACUCAGUCCCAGGAGUUUCCUCCUGCAAUUUCAACAGCUCGCAGUCAAG”, the binding signal (log2 fold change) was 0.123.

For the sequence “GGUCACGUCUCAAUCAACUCUAUUCCCAGGGAAAACCCUGGUAUUUUCAACAGCUCGCAGUCAAG”, the binding signal (log2 fold change) was -0.468.

Consider “GGUCACGUCUCAAUCAACUCUUAGGAGGGGGGGAAAACCCCUUUACCCUCACACUCAACAGCUCGCAGUCAAG”, for which the binding signal (log2 fold change) is -0.529.

As for “GGUCACGUCUCAAUCAACUCACUAGAGGGGGGGAAAACCCCUUUACCCUCACCUUCAACAGCUCGCAGUCAAG”, the binding signal (log2 fold change) was found to be 0.0195.

Consider “GGUCACGUCUCAAUCAACUCCUUAGAGGGGGGGAAAACCCCUUUACCCUCACUCUCAACAGCUCGCAGUCAAG”, for which the binding signal (log2 fold change) amounted to 0.217.

With “GGUCACGUCUCAAUCAACUCUUCUUCCAGGGAAACCCCUGGCGUUUUCAACAGCUCGCAGUCAAG”, the binding signal (log2 fold change) is -0.228.

On to “GGUCACGUCUCAAUCAACUCAAACGAGGGGGGGAAAACCCCUUUACCCUCACAAUCAACAGCUCGCAGUCAAG”, for which the binding signal (log2 fold change) turned out to be 0.141.

“GGUCACGUCUCAAUCAACUCAAUCUCAGGAGUUUUCUCCUGCUAAUUCAACAGCUCGCAGUCAAG”: the binding signal (log2 fold change) was 0.113.

Consider “GGUCACGUCUCAAUCAACUCUUCGUCCAGGGAAAACCCUGGUUUAUUCAACAGCUCGCAGUCAAG”, for which the binding signal (log2 fold change) came to 0.152.

As to “GGUCACGUCUCAAUCAACUCAUUCUCAGGAGUUUUCUCCUGCAAUUUCAACAGCUCGCAGUCAAG”, the binding signal (log2 fold change) was -0.00595.

For the sequence “GGUCACGUCUCAAUCAACUCAUCCUCAGGAGUUUCCUCCUGCUUACUCAACAGCUCGCAGUCAAG”, the binding signal (log2 fold change) came out at 0.00531.

Consider “GGUCACGUCUCAAUCAACUCUUUCUCCAGGGAAAACCCUGGCAUGUUCAACAGCUCGCAGUCAAG”, for which the binding signal (log2 fold change) was 0.117.

Turning to “GGUCACGUCUCAAUCAACUCUACUUCCAGGGAAAACCCUGGCUAUGUCAACAGCUCGCAGUCAAG”, the binding signal (log2 fold change) is -0.00788.

“GGUCACGUCUCAAUCAACUCAUCCUCAGGAGUUUCCUCCUGUAUUCUCAACAGCUCGCAGUCAAG”: the binding signal (log2 fold change) was determined as 0.0834.

Consider “GGUCACGUCUCAAUCAACUCUAUUCCAGGAGUUUCCUCCUGCAUAUUCAACAGCUCGCAGUCAAG”, for which the binding signal (log2 fold change) amounted to 0.0229.

As for “GGUCACGUCUCAAUCAACUCUUCCUCCAGGGAAAUCCCUGGCAAAUUCAACAGCUCGCAGUCAAG”, the binding signal (log2 fold change) is -0.0463.

On to “GGUCACGUCUCAAUCAACUCUUCUUCCAGGGAAAACCCUGGCAAUCUCAACAGCUCGCAGUCAAG”, for which the binding signal (log2 fold change) is -0.00149.

For “GGUCACGUCUCAAUCAACUCUUUUCCCAGGGAAACCCCUGGUUAUCUCAACAGCUCGCAGUCAAG”, the binding signal (log2 fold change) is -0.0184.

With “GGUCACGUCUCAAUCAACUCCAUAGAGGGGGGGAAAACCCCUUUGCCCUCAUAAUCAACAGCUCGCAGUCAAG”, the binding signal (log2 fold change) is -0.217.

Take “GGUCACGUCUCAAUCAACUCUUUAGAGGGGGGGAAAACCCCUUUGCCCUCAACCUCAACAGCUCGCAGUCAAG”: the binding signal (log2 fold change) is -0.0612.

For “GGUCACGUCUCAAUCAACUCUUCUCCCAGGGAAAUCCCUGGUAAACUCAACAGCUCGCAGUCAAG”, the binding signal (log2 fold change) came out at 0.359.

“GGUCACGUCUCAAUCAACUCUUCUCCAGGAGUUUUCUCCUGUUUUUUCAACAGCUCGCAGUCAAG”: the binding signal (log2 fold change) is 0.0665.

Consider “GGUCACGUCUCAAUCAACUCUUCUCCAGGAGUUUUCUCCUGCUUAUUCAACAGCUCGCAGUCAAG”, for which the binding signal (log2 fold change) is -0.0236.

With “GGUCACGUCUCAAUCAACUCUUUCUCAGGAGUUUUCUCCUGCAAUGUCAACAGCUCGCAGUCAAG”, the binding signal (log2 fold change) was determined as 0.0328.

For the sequence “GGUCACGUCUCAAUCAACUCUUUAGAGGGGGGGAAAACCCCUUUGCCCUCGAAUUCAACAGCUCGCAGUCAAG”, the binding signal (log2 fold change) stood at 0.388.

“GGUCACGUCUCAAUCAACUCUUUCCCCAGGGAAACCCCUGGCUAUGUCAACAGCUCGCAGUCAAG”: the binding signal (log2 fold change) is -0.161.

Take “GGUCACGUCUCAAUCAACUCUUCCCCAGGAGUUUACUCCUGCAUUCUCAACAGCUCGCAGUCAAG”: the binding signal (log2 fold change) is 0.0679.

Consider “GGUCACGUCUCAAUCAACUCUUCGUCCAGGGAAACCCCUGGUAAUUUCAACAGCUCGCAGUCAAG”, for which the binding signal (log2 fold change) came out at 0.0379.

With “GGUCACGUCUCAAUCAACUCACACGAGGGGGGGAAAACCCCUUUACCCUCAAUUUCAACAGCUCGCAGUCAAG”, the binding signal (log2 fold change) is 0.119.

Regarding “GGUCACGUCUCAAUCAACUCAGUCUCAGGAGUUUACUCCUGCUUUUUCAACAGCUCGCAGUCAAG”, the binding signal (log2 fold change) was -0.105.

With “GGUCACGUCUCAAUCAACUCUACUUCCAGGGAAACCCCUGGUAAUCUCAACAGCUCGCAGUCAAG”, the binding signal (log2 fold change) is -0.0145.

For “GGUCACGUCUCAAUCAACUCAUUUCCCAGGGAAACCCCUGGUUAUCUCAACAGCUCGCAGUCAAG”, the binding signal (log2 fold change) was -0.00494.

In the case of “GGUCACGUCUCAAUCAACUCAAUCCCCAGGGAAAUCCCUGGUUUUCUCAACAGCUCGCAGUCAAG”, the binding signal (log2 fold change) was found to be 0.0358.

As to “GGUCACGUCUCAAUCAACUCAUCUUCCAGGGAAACCCCUGGCAUACUCAACAGCUCGCAGUCAAG”, the binding signal (log2 fold change) came to 0.113.

With “GGUCACGUCUCAAUCAACUCAACUUCAGGAGUUUCCUCCUGCAAACUCAACAGCUCGCAGUCAAG”, the binding signal (log2 fold change) is 0.0453.

For “GGUCACGUCUCAAUCAACUCUAUUUCAGGAGUUUCCUCCUGCUAUUUCAACAGCUCGCAGUCAAG”, the binding signal (log2 fold change) stood at 0.0697.

“GGUCACGUCUCAAUCAACUCUCUAGAGGGGGGGAAAACCCCUUUGCCCUCAACAUCAACAGCUCGCAGUCAAG”: the binding signal (log2 fold change) was determined as 0.0563.

“GGUCACGUCUCAAUCAACUCAUCGUCAGGAGUUUACUCCUGCUUUUUCAACAGCUCGCAGUCAAG”: the binding signal (log2 fold change) was -0.387.

Turning to “GGUCACGUCUCAAUCAACUCAAUCUCCAGGGAAACCCCUGGUUUACUCAACAGCUCGCAGUCAAG”, the binding signal (log2 fold change) was -0.158.

Consider “GGUCACGUCUCAAUCAACUCUAUCCCCAGGGAAAUCCCUGGCUAUUUCAACAGCUCGCAGUCAAG”, for which the binding signal (log2 fold change) was 0.114.

“GGUCACGUCUCAAUCAACUCAUUCCCCAGGGAAAUCCCUGGCAAUCUCAACAGCUCGCAGUCAAG”: the binding signal (log2 fold change) is -0.0336.

On to “GGUCACGUCUCAAUCAACUCUUUUUCCAGGGAAAGCCCUGGCAUAUUCAACAGCUCGCAGUCAAG”, for which the binding signal (log2 fold change) is 0.18.

Take “GGUCACGUCUCAAUCAACUCAACUUCAGGAGUUUUCUCCUGUUAUGUCAACAGCUCGCAGUCAAG”: the binding signal (log2 fold change) turned out to be 0.0344.

Take “GGUCACGUCUCAAUCAACUCCCACGAGGGGGGGAAAACCCCUUUACCCUCACCUUCAACAGCUCGCAGUCAAG”: the binding signal (log2 fold change) is -0.0503.
